According to PubChem BioAssay AID686979 (National Center for Advancing Translational Sciences (NCATS), 2013):
About 50,000 (12%) of roughly 420,000 compounds were called active. Inconclusive means that the source gave no clear call. Such entries were picked first, then a sample of the others. Calls come from the whole dose curve; as a rule, active = well fitted inhibition curve with a large enough effect; inconclusive = small, poorly fitted or top-dose-only effect; inactive = flat fitted curve, though single readings scatter. No potency is given beside an inconclusive call; the fits are too rough.

Assay: qHTS for Inhibitors of human tyrosyl-DNA phosphodiesterase 1 (TDP1): qHTS in cells in presence of CPT; note: nearly all actives have a fitted effect of over 55% in size
Conditions: chicken DT40 Tdp1-/-;hTDP1 cells + 20 nM CPT, ATP luminescence, 48 h; activity change, negative = growth inhibition: at 46.2 µM (top of the series)
Outline: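 Chicken DT40 Tdp1-/- cells complemented with human TDP1, 400 cells/well, exposed to compounds plus 20 nM camptothecin for at least 48 h at 37 C; viability read as ATP content by CellTiter-Glo luminescence.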
% is set by controls: 0 for no effect and ±100 for the full control effect; potency is the fitted concentration of half-maximal effect; tags give direction and shape of the fitted curve.

Row | SMILES | activity change, negative = growth inhibition | Potency
1 | Cc1ccnc(NS(=O)(=O)c2ccccc2)c1 | inactive: 2.57% | 
2 | O=C(Nc1cccc(F)c1)N1CCC2(CC1)CCN(C(=O)c1cc(C(F)(F)F)cc(C(F)(F)F)c1)CC2 | inactive: -11.5% | 
3 | CCCCOc1ccc(OCCNS(=O)(=O)N(C)C)cc1 |  | inconclusive [inhibitor, single point]
4 | CCOc1cc(-c2cn(S(=O)(=O)c3cccc4nsnc34)nc2N)cc(OCC)c1OCC |  | inconclusive [inhibitor, partial curve]
5 | O=C(Cn1nnc2ccccc21)N/N=C\C=C\c1ccccc1 | inactive: 0.0698% | 
6 | C=CCc1cccc(CNc2nc3ccccc3n2C)c1O |  | inconclusive [inhibitor, single point]
7 | Cc1ccc(-c2cc(N)n(Cc3ccc(Cl)cc3)n2)cc1 |  | inconclusive [inhibitor, single point]
8 | COc1ccccc1NC(NC(=O)c1cccnc1)C(Cl)(Cl)Cl (stereo not given) |  | inconclusive [inhibitor, single point]
9 | COc1ccc(CCN2C(=O)C(Oc3ccccc3)C2c2ccc3c(c2)OCO3)cc1 (stereo not given) |  | inconclusive [inhibitor, single point]
10 | CC(=O)N1CCc2c(sc(NC(=O)C3CC3)c2-c2nc3ccccc3s2)C1 |  | active: 16.4 µM
11 | CC(C)c1ccc(Nc2cc(C(=O)NCCCN(C)Cc3ccccc3)c3ccccc3n2)cc1 |  | active: 9.2 µM
12 | O=C(c1ccncc1)N1CCC2(CC1)CCN(c1cccc(-c3ccccc3)c1)CC2 |  | inconclusive [inhibitor, single point]
13 | Cc1cccc(NC(=O)CSc2ncc3c(n2)-c2cc(Cl)ccc2N(C)S3(=O)=O)c1C |  | inconclusive [inhibitor, single point]
14 | Cc1ccc(C2CCN(C(=S)NC(C)C)C2)cc1 (stereo not given) |  | inconclusive [inhibitor, partial curve, poor fit]
15 | CCN(CC(=O)Nc1ccc2c(c1)OCO2)Cc1nc2ccccc2c(=O)[nH]1 |  | inconclusive [inhibitor, single point]
16 | O=C(Nc1ccc2nc(-c3ccc(Br)o3)[nH]c2c1)c1ccco1 |  | inconclusive [inhibitor, partial curve]
17 | COC(=O)c1ccc(C2c3c(-c4ccc(Br)cc4)n[nH]c3C(=O)N2c2ccc(Cl)cc2)cc1 (stereo not given) |  | inconclusive [inhibitor, single point]
18 | COc1cc(-c2n[nH]c(=O)o2)cc(OC)c1OC | inactive: -1.79% | 
19 | CC(=O)c1cccc(NC(=O)c2ccc([N+](=O)[O-])o2)c1 |  | active: 8.2 µM
20 | COc1ccc2[nH]cc(CCNc3ccnc(-c4ccccc4C(F)(F)F)n3)c2c1 |  | inconclusive [inhibitor, single point]
21 | COC(=O)c1cc(-c2cccc([N+](=O)[O-])c2)c2c(=O)n(C)c(=O)n(C)c2n1 | inactive: -17% | 
22 | CC(=O)Oc1ccccc1Cn1c(C)c(C(=O)NCc2ccc(F)cc2)sc1=O |  | inconclusive [inhibitor, single point]
23 | O=C(NCCc1cn2ccccc2n1)c1cc(COc2ccc3ncccc3c2)on1 |  | active: 4.11 µM
24 | CC(=O)N1CCN(C(=O)C(=O)Nc2c3c(nn2-c2ccc(Cl)cc2)CSC3)CC1 | inactive: -0.541% | 

Row | SMILES | activity change, negative = growth inhibition | Potency
25 | C=C1C(=O)O[C@@H]2[C@H]1CC[C@H](C)[C@]1(O)CCC(=O)[C@@]21C |  | active: 23.1 µM
26 | C[C@@H]1CN([C@@H](C)CO)C(=O)c2cccc(NS(C)(=O)=O)c2O[C@H]1CN(C)Cc1ccc(Oc2ccccc2)cc1 |  | inconclusive [inhibitor, single point]
27 | Cn1c(Cc2ccccc2)nnc1SCC(=O)NCCc1ccccc1 |  | inconclusive [inhibitor, single point]
28 | O=C(CNC(=O)c1ccc(Cl)cc1)NC1CCCCC1 |  | inconclusive [inhibitor, single point]
29 | Oc1ccc(O)c(Cc2nc3ccccc3s2)c1 |  | inconclusive [inhibitor, single point]
30 | CCOc1ccc2c(c1)c(=O)c(S(=O)(=O)c1ccc(CC)cc1)cn2CC |  | inconclusive [inhibitor, single point]
31 | COc1cc(/C=C2\SC(=O)N(Cc3ccc(F)cc3)C2=O)cc([N+](=O)[O-])c1O |  | inconclusive [inhibitor, single point]
32 | O=C(N/N=C/c1ccc(O)c(O)c1)c1cccc(S(=O)(=O)N2CCCCC2)c1 |  | inconclusive [inhibitor, single point]
33 | COc1cccc(-c2nc(-c3cccs3)no2)c1 | inactive: 4.43% | 
34 | CN(C)c1ccc(NC(=O)c2cccc(C(=O)Nc3ccc(N(C)C)cc3)n2)cc1 |  | active: 9.2 µM
35 | O=C(COc1ccccc1)Nc1c(C(=O)N2CCN(c3ccc(F)cc3)CC2)oc2ccccc12 |  | inconclusive [inhibitor, single point]
36 | Cc1nn(-c2ccccc2)c2c1CC(=O)Nc1ccccc1-2 |  | active: 0.651 µM
37 | CCCCn1c(CCc2ccccc2)nc2cc3[nH]c(=O)c(C(C)C)nc3cc21 |  | inconclusive [inhibitor, single point]
38 | O=C(Cn1nc(Cl)nc1Cl)c1ccc(F)cc1 | inactive: -1.13% | 
39 | CCn1c(SCC(=O)c2ccc(C)cc2)nnc1-c1ccoc1C |  | inconclusive [inhibitor, single point]
40 | COCCOC(=O)c1c(NC(=O)COC(=O)c2ccc(C)o2)sc(C(N)=O)c1C |  | inconclusive [inhibitor, single point]
41 | CCCCn1nc(C(=O)N(C)Cc2nc3ccccc3c(=O)[nH]2)c2ccccc2c1=O | inactive: -4.8% | 
42 | CCOc1ccc(CCNC(=O)CCCc2nnc3n(CCCOC)c(=O)c4sccc4n23)cc1 |  | inconclusive [inhibitor, partial curve, poor fit]
43 | O=C(/C=C/[C@H]1O[C@@H](n2ccc(=O)[nH]c2=O)[C@H](O)[C@@H]1O)NCc1cccnc1 | inactive: 6.83% | 
44 | CC(NC(=O)c1ccccc1Br)C1CC2CCC1C2 (stereo not given) | inactive: -7.58% | 
45 | COc1ccc(CCn2c(=S)[nH]c(=O)c3nccnc32)cc1OC |  | active: 6.31 µM
46 | COc1ccc(C2SCC(C(=O)NCc3ccc(F)cc3)N2C(C)=O)cc1 (stereo not given) | inactive: -6.54% | 
47 | COc1cccc(S(=O)(=O)Nc2ccc3sc(C)nc3c2)c1 |  | inconclusive [inhibitor, partial curve]
48 | CC12CCC(=O)N1C(C(=O)N1CCN(c3ccc([N+](=O)[O-])cc3)CC1)CS2 (stereo not given) |  | inconclusive [inhibitor, single point]

Row | SMILES | activity change, negative = growth inhibition | Potency
49 | O=C(COC(=O)[C@@H]1CCCN1C(=O)c1cccs1)NCCc1ccccc1 |  | inconclusive [inhibitor, partial curve]
50 | C[C@H]1CN([C@@H](C)CO)C(=O)c2cc(C#CC3CCCC3)cnc2O[C@H]1CN(C)C(=O)Cc1ccccn1 | inactive: 4.45% | 
51 | CCN1C(=O)[C@H]2[C@@H](c3ccc(-c4ccc5c(c4)OCO5)c(OC)c3)N[C@@](C)(C(=O)OC)[C@H]2C1=O |  | inconclusive [inhibitor, single point]
52 | c1ccc2c(c1)ncc1cccn12 | inactive: -1.95% | 
53 | Cc1ccc(NC(=O)c2ccc3c(c2)NC(=O)CS3)nc1 | inactive: -0.495% | 
54 | COC(=O)c1cccc(NC(=O)c2cc3sccc3n2C)c1 |  | inconclusive [inhibitor, single point]
55 | CCOc1ccc(S(=O)(=O)N2CCCC(C(=O)N3CCN(c4ccccc4)CC3)C2)cc1 (stereo not given) |  | active: 16.4 µM
56 | CCc1noc(C)c1C(=O)Nc1ccc(C)c(S(=O)(=O)N2CCCCCC2)c1 |  | active: 16.4 µM
57 | CC(C)SC1=NC(C)(C)C=C(/C=C/c2c(Cl)cccc2Cl)N1 |  | inconclusive [inhibitor, single point]
58 | CCCCn1c(N)c(N(CCC(C)C)C(=O)c2ccc([N+](=O)[O-])s2)c(=O)[nH]c1=O |  | active: 23.1 µM
59 | c1ccc(Cn2cc(CN3CCCO3)c(-c3ccc4c(c3)OCO4)n2)cc1 | inactive: -20.1% | 
60 | CCc1ccccc1NC(=O)CSc1nc2cc(C(=O)NCC3CCCO3)ccc2c(=O)n1CC1CCCO1 (stereo not given) |  | inconclusive [inhibitor, single point]
61 | Cc1ccc(N2C(=O)CC(N3CCN(c4ccccn4)CC3)C2=O)cc1 (stereo not given) | inactive: -7.61% | 
62 | CCOc1cc(N2CCOCC2)c(OCC)cc1NC(=O)c1ccc(F)c(S(=O)(=O)N2CCOCC2)c1 | inactive: -9.47% | 
63 | CN(C)c1ccc(C(=O)N/N=C/c2cc(Br)cc(Br)c2O)cc1 |  | active: 6.51 µM
64 | C=CCn1c(N)c(C(=O)Nc2ccc(C)cc2)sc1=S | inactive: -3.02% | 
65 | CCC(CC)NC(=O)Cc1ccccc1[N+](=O)[O-] | inactive: -0.341% | 
66 | CCOC(=O)c1ccc(NC(=O)CSc2cc(-c3ccccc3)nc(C)n2)cc1 |  | inconclusive [inhibitor, partial curve]
67 | Cc1ccc2nc(-c3ccccn3)c(N)n2c1 |  | inconclusive [inhibitor, partial curve, poor fit]
68 | Cc1cc(C(=O)COC(=O)c2ccc(N)c([N+](=O)[O-])c2)c(C)n1Cc1ccc2c(c1)OCO2 |  | inconclusive [inhibitor, single point]
69 | COC(=O)[C@]12CCCCC=C1N(Cc1ccc(Cl)cc1Cl)C(=O)[C@H](CC(=O)N1CCCC1)C2 |  | inconclusive [inhibitor, single point]
70 | Cc1cccc2cc(C#N)c(SCC(=O)N3CCC(C)CC3)nc12 |  | inconclusive [inhibitor, single point]
